Experimental data from the supplement of paper PMC9446081.
In all, about 39,000 compounds went through this assay and about 220 (0.56%) showed activity. The list shows a part of the results.
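Further: static incubation at 37 °C against the wild-type strain, values averaged over two biological replicates.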

These compounds were tested on Escherichia coli K-12 BW25113 (assay: relative growth (OD600 normalised to plate interquartile mean) (fraction); higher = less growth inhibition, active = 0.2 or less). Settings: 50 µM; LB; incubation time: overnight (16-24 h).
For C[C@H]1CN([C@@H](C)CO)S(=O)(=O)c2ccc(-c3cncnc3)cc2O[C@H]1CN(C)C(=O)Cc1ccccc1, the relative growth was inactive: 1.02. CCOC(=O)C1=C(C)NC(=O)N[C@@H]1C was tested, and the relative growth was inactive: 0.987. For Cc1noc(C)c1S(=O)(=O)N(C)C[C@@H]1Oc2ccc(NC(=O)NC(C)C)cc2CC(=O)N([C@H](C)CO)C[C@H]1C, the relative growth was inactive: 0.982. O=C1O[C@H](c2ccccc2)[C@H](c2ccccc2)N2[C@H]1[C@@H](C(=O)N1CCN(c3ncccn3)CC1)[C@]1(C(=O)Nc3ccc(C#CC4(O)CCCCCC4)cc31)[C@H]2c1ccccc1OCCO was tested, and the relative growth was inactive: 1.06. C[C@@H]1CCCCO[C@@H](CN(C)S(=O)(=O)c2cn(C)cn2)[C@H](C)CN([C@@H](C)CO)C(=O)c2cc(N(C)C)ccc2O1 was tested, and the relative growth was inactive: 1.03. CN1CCN(C(=O)C[C@@H]2C[C@@H]3c4cc(NS(=O)(=O)c5ccc(F)cc5)ccc4O[C@@H]3[C@@H](CO)O2)CC1 was tested, and the relative growth was inactive: 1. With Nc1ncnc2c1ncn2[C@H]1O[C@@H](CO)[C@H](O)[C@@H]1O the relative growth was inactive: 0.993. With C[C@H](CO)N1C[C@H](C)[C@@H](CN(C)C(=O)Nc2ccccc2)Oc2ccc(NC(=O)CCCCCC(=O)Nc3ccccc3N)cc2CC1=O the relative growth was inactive: 0.998. For CN[C@@H]1[C@@H](O)[C@@H](O[C@@H]2[C@@H](O)[C@H](O[C@H]3O[C@H]([C@@H](C)NC)CC[C@H]3N)[C@@H](N)C[C@H]2N)OC[C@]1(C)O, the relative growth was inactive: 0.57. In the case of C[C@@H]1CN([C@H](C)CO)C(=O)c2cc(NS(=O)(=O)c3cccs3)ccc2O[C@@H](C)CCCCO[C@@H]1CN(C)S(=O)(=O)c1ccc(Cl)cc1, the relative growth is reported as inactive: 1.01. For COc1ccc(NC(=O)Nc2ccc3c(c2)C(=O)N([C@@H](C)CO)C[C@H](C)[C@H](CN(C)C(=O)Nc2ccc(F)cc2)OCCCC[C@@H](C)O3)cc1, the relative growth was inactive: 1.05. In the case of COc1ccc(NC(=O)N(C)C[C@H]2Oc3ccc(NC(=O)CCCCCC(=O)Nc4ccccc4N)cc3CC(=O)N([C@@H](C)CO)C[C@@H]2C)cc1, the relative growth is reported as inactive: 0.974. With C[C@@H]1[C@@H](O)[C@@H](N(C)C)C[C@H]2COC[C@@H]21 the relative growth was inactive: 1. C[C@@H]1CCCCO[C@@H](CN(C)S(=O)(=O)c2ccc(Cl)cc2)[C@@H](C)CN([C@H](C)CO)C(=O)c2cc(NC(=O)Nc3ccccc3)ccc2O1 was tested, and the relative growth was inactive: 1.01. C[C@H]1CN([C@@H](C)CO)C(=O)c2cc(NC(=O)Nc3ccc(C(F)(F)F)cc3)ccc2O[C@H]1CN(C)Cc1ccccc1 was tested, and the relative growth was inactive: 1.03. With CC1(C)S[C@H]2[C@@H](NC(=O)[C@@H](N)c3ccccc3)C(=O)N2[C@@H]1C(=O)O the relative growth was inactive: 1.01. For Cc1noc(C)c1NC(=O)N(C)C[C@@H]1Oc2c(NC(=O)Nc3ccc(C(F)(F)F)cc3)cccc2C(=O)N([C@H](C)CO)C[C@@H]1C, the relative growth was inactive: 0.954. With C[C@H](CO)N1C[C@H](C)[C@@H](CN(C)Cc2cccc(C(=O)O)c2)Oc2cc(Br)ccc2S1(=O)=O the relative growth was inactive: 1. C[C@@H]1CN([C@H](C)CO)C(=O)c2cccc(NC(=O)c3ccncc3)c2O[C@@H]1CN(C)S(=O)(=O)c1cn(C)cn1 was tested, and the relative growth was inactive: 1.03. For C[C@@H]1CCCCO[C@@H](CN(C)S(=O)(=O)c2ccccc2)[C@@H](C)CN([C@H](C)CO)C(=O)c2cc(NC(=O)c3ccccc3)ccc2O1, the relative growth was inactive: 1. For C[C@@H]1CN([C@H](C)CO)C(=O)Cc2cc(NS(=O)(=O)c3cn(C)cn3)ccc2O[C@H]1CN(C)C, the relative growth was inactive: 1.01. CC(C)NC(=O)Nc1ccc2c(c1)CC(=O)N([C@H](C)CO)C[C@@H](C)[C@@H](CN(C)Cc1ccc(Oc3ccccc3)cc1)O2 was tested, and the relative growth was inactive: 0.984. C[C@@H]1CCCCO[C@H](CN(C)Cc2ccc(C(=O)Nc3ccccc3N)cc2)[C@@H](C)CN([C@H](C)CO)C(=O)c2cc(NS(=O)(=O)c3ccc(F)cc3)ccc2O1 was tested, and the relative growth was inactive: 1.01. O=C(CCCCCCNC(=O)c1ccc(NCc2cn(Cc3ccc(C(=O)c4ccc(Cn5cc(CNc6ccc(C(=O)NCCCCCCC(=O)NO)cc6)nn5)cc4)cc3)nn2)cc1)NO was tested, and the relative growth was inactive: 0.995. For C=CCOC(=O)N(C)C[C@H]1OCCCC[C@H](C)Oc2ccc(NC(=O)Nc3ccccc3)cc2C(=O)N([C@@H](C)CO[Si](C)(C)C(C)(C)C)C[C@H]1C, the relative growth was inactive: 1.07. COc1ccc(CN(C)C[C@@H]2OCCCC[C@H](C)Oc3ccc(NS(=O)(=O)c4c(C)noc4C)cc3C(=O)N([C@H](C)CO)C[C@@H]2C)cc1 was tested, and the relative growth was inactive: 1. For O=C(C[C@@H]1CC[C@@H]2[C@H](COC[C@H](O)CN2C(=O)c2cccnc2)O1)NCC1CC1, the relative growth was inactive: 1.01. For Cc1ccc(S(=O)(=O)N(C)C[C@H]2Oc3ncc(C#CCC(C)C)cc3C(=O)N([C@@H](C)CO)C[C@@H]2C)cc1, the relative growth was inactive: 1.01. In the case of C[C@@H]1CN([C@@H](C)CO)C(=O)Cc2cc(NC(=O)Cn3cnnn3)ccc2O[C@H]1CN(C)Cc1ccncc1, the relative growth is reported as inactive: 0.997. For CN(C)C(=O)C[C@@H]1C=C[C@H](NC(=O)C2CCOCC2)[C@@H](CO)O1, the relative growth was inactive: 0.96. In the case of C[C@H]1CCCCO[C@H](CN(C)S(=O)(=O)c2cn(C)cn2)[C@@H](C)CN([C@@H](C)CO)C(=O)c2cc(NS(C)(=O)=O)ccc2O1, the relative growth is reported as inactive: 0.967. C[C@H](CO)N1C[C@H](C)[C@@H](CN(C)S(=O)(=O)c2cccs2)OCCCC[C@H](C)Oc2ccc(NS(=O)(=O)c3ccc(Cl)cc3)cc2C1=O was tested, and the relative growth was inactive: 1.1. O=C(C[C@H]1C[C@H]2c3cc(NS(=O)(=O)c4ccc(F)cc4)ccc3O[C@H]2[C@H](CO)O1)NCc1ccncc1 was tested, and the relative growth was inactive: 1. For CCCNC(=O)N1C[C@H](O)COC[C@@H]2O[C@H](CC(=O)N3CCN(C)CC3)CC[C@H]21, the relative growth was inactive: 0.993. In the case of C[C@@H]1CCCCO[C@@H](CN(C)S(=O)(=O)c2ccc(Cl)cc2)[C@H](C)CN([C@@H](C)CO)C(=O)c2cc(NC(=O)CCC(F)(F)F)ccc2O1, the relative growth is reported as inactive: 1.
